The structures appear in SMILES notation. Structures can show the parent of a compound that is named as a salt. ± gives the standard deviation of the averaged measurements. The full ranking holds about 2,000 compounds; the median of “relative cell viability vs DMSO, compound + 0.2 uM CuET” is about 1, and the lowest 2% start at about 0.25. This is one part of the list.

The assay relates to TE10. Description: relative cell viability vs DMSO, compound + 0.2 uM CuET (fraction); TE10 is an esophageal squamous carcinoma line; higher = less cytotoxic. As to conditions: 2 µM; co-treatment: CuET (bis(diethyldithiocarbamate)copper) 0.2 uM; 48 h. On the procedure: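 TE10 ESCC cells (1,000/well, 384-well plates) were treated with Selleck bioactive library compounds at 2 uM combined with 0.2 uM CuET (copper diethyldithiocarbamate) for 48 h. Viability was read by CellTiter-Glo and expressed relative to DMSO wells. Two technical replicates (A, B).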
On to `CC(C)(C)[N+]([O-])=Cc1ccc(S(=O)(=O)O)cc1S(=O)(=O)O`, for which the relative cell viability stood at 1.15 ± 0.091.
In the case of `CC(C)OC(=O)C1=CN(C(=O)c2ccc(F)c(F)c2)CC(C)(C)c2c1[nH]c1ccccc21`, the relative cell viability worked out at 1.13 ± 0.041.
With `CN1CCN(C(c2ccccc2)c2ccccc2)CC1` [Cyclizine 2HCl], the relative cell viability worked out at 1.19 ± 0.01.
As to `Cc1ccc(F)c(NC(=O)Nc2ccc(-c3cccc4[nH]nc(N)c34)cc2)c1` [Linifanib (ABT-869)], the relative cell viability is 0.606 ± 0.18.
Take `C[C@]12CC[C@@H]3c4ccc(OC(=O)c5ccccc5)cc4CC[C@H]3[C@@H]1CC[C@@H]2O` [Estradiol Benzoate]: the relative cell viability turned out to be 1.11 ± 0.042.
For `CC[C@@H](C)Nc1cc(C(=O)N[C@H]2C[C@H]3CC[C@@H](C2)N3c2ccc(C(=O)C3CC3)cn2)c(C)cc1C(N)=O`, the relative cell viability was found to be 0.505 ± 0.04.
Take `Cc1ccc(NC(=O)c2cccc(C(C)(C)C#N)c2)cc1Nc1ccc2ncn(C)c(=O)c2c1`: the relative cell viability stood at 1.09 ± 0.013.
As for `OCCN(CCO)c1nc(N2CCCCC2)c2nc(N(CCO)CCO)nc(N3CCCCC3)c2n1` [Dipyridamole], the relative cell viability amounted to 1.13 ± 0.091.
`CC(C)OC(=O)OCOP(=O)(CO[C@H](C)Cn1cnc2c(N)ncnc21)OCOC(=O)OC(C)C` [Tenofovir Disoproxil Fumarate]: the relative cell viability was found to be 1.27 ± 0.19.
The same measure for `COc1ccc(-n2c(SCCCN3C(=O)c4cccc5cccc(c45)C3=O)nnc2-c2ccncc2)cc1`: 0.995 ± 0.085; for `Cc1cccc(CC(=O)N2CCc3c2ccc(-c2cn(C)c4ncnc(N)c24)c3F)n1`: 1.16 ± 0.072.
On to `Cc1c(-c2cnccn2)ssc1=S` [Oltipraz], for which the relative cell viability amounted to 0.787 ± 0.064.
The same measure for `Cc1ccc(=O)n(-c2ccccc2)c1` [Pirfenidone]: 1.15 ± 0.27; for `N[C@@H](Cc1cc(I)c(Oc2ccc(O)c(I)c2)c(I)c1)C(=O)O` [Liothyronine Sodium]: 1.05 ± 0.19; for `COc1ccc(C2CC(=O)c3c(O)cc(OC4OC(COC5OC(C)C(O)C(O)C5O)C(O)C(O)C4O)cc3O2)cc1OC` (configuration not stated) [Methyl-Hesperidin]: 1.16 ± 0.051.
For the compound `O=C(Oc1cc(S(=O)(=O)c2ccccc2)ccc1[N+](=O)[O-])c1ccc(Cl)cc1`, the relative cell viability is 1.04 ± 0.07.
Regarding `CN(C)C(=O)[C@H](O)[C@H](Cc1ccccc1)NC(=O)c1cc2cc(Cl)ccc2[nH]1`, the relative cell viability came to 1.21 ± 0.28.
Next, `COC(=O)C1=C(C#N)NC(C)=C(C(=O)OC(C)C)C1c1cccc([N+](=O)[O-])c1` (configuration not stated) [Nilvadipine]: 1.11 ± 0.1.
Next, `CNc1nc(Nc2cn(C(C)(C)C#N)nc2C)ncc1C(F)(F)F`: 1.16 ± 0.09; `COCCCN1CCC(NC(=O)c2cc(Cl)c(N)c3c2OCC3)CC1` [Prucalopride]: 1.19 ± 0.14.
As to `COCCCN1CCC(NC(=O)c2cc(Cl)c(N)c3c2OCC3)CC1` [Prucalopride Succinat], the relative cell viability is 1.15 ± 0.088.
As for `O=C(Nc1ccncc1)c1cc([N+](=O)[O-])ccc1Cl`, the relative cell viability worked out at 1.18 ± 0.18.

Source of the values: the supplement of paper PMC10670038.
